Repeats are few or missing, and single values can be far off.
Key:
[1] = test system: CHO-K1; assay: micronucleus frequency (% of nucleated events); higher = more micronuclei (genotoxic)
[2] = test system: CHO-K1; assay: hypodiploid nuclei frequency (% of nucleated events); higher = more hypodiploid events (aneugenic)
Description: (§1)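 Flow-cytometric in vitro micronucleus assay (Litron MicroFlow) in CHO-K1 cells in 96-well plates, 19 concentrations (4.5-200 µM, n=1 per concentration). Without S9, cells were exposed for 24 h and sampled at 48 h. With Aroclor 1254-induced rat liver S9, cells were exposed for 3-4 h and sampled at 27-28 h. Read-outs are %MN and %hypodiploid nuclei relative to nucleated events, and relative survival as the nuclei-to-bead ratio versus the 1% DMSO vehicle control (x100).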

[3] = test system: CHO-K1; assay: relative survival (nuclei to bead ratio vs DMSO control) (% of vehicle control); higher = more surviving cells
Description: as §1
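For hypodiploid nuclei frequency (% of nucleated events) in this document: hypodiploid nuclei gated on a flow cytometer with 488 nm excitation after SYTOX Green staining, cultures at 37 °C, positive controls vinblastine without S9 and cyclophosphamide with S9.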
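For micronucleus frequency (% of nucleated events) in this document: cells lysed with nuclei stained by SYTOX Green, then micronucleus-gated events counted against nucleated events by flow cytometry with 488 nm excitation.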
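For relative survival (nuclei to bead ratio vs DMSO control) in this document: Lysed-cell nuclei stained with SYTOX Green and counted against counting beads by flow cytometry at 488 nm excitation, with vinblastine (no S9) and cyclophosphamide (plus S9) as positive controls.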

CC(C)COC(=O)c1ccccc1C(=O)OCC(C)C [Diisobutyl phthalate]
Conditions	hypodiploid nuclei frequency, [2] [%]	micronucleus frequency, [1] [%]	relative survival, [3]
concentration: 4.5 (µM), S9 metabolic activation: with S9, exposure time: 3-4 hours	0.32	2.04	175
concentration: 4.5 (µM), S9 metabolic activation: without S9, exposure time: 24 hours	0.74	1.16	113
concentration: 5.63 (µM), S9 metabolic activation: with S9, exposure time: 3-4 hours	0.26	1.74	159
concentration: 5.63 (µM), S9 metabolic activation: without S9, exposure time: 24 hours	0.56	1.62	117
concentration: 7.04 (µM), S9 metabolic activation: with S9, exposure time: 3-4 hours	0.3	1.18	181
concentration: 7.04 (µM), S9 metabolic activation: without S9, exposure time: 24 hours	0.4	1.04	130
concentration: 8.8 (µM), S9 metabolic activation: with S9, exposure time: 3-4 hours	0.3	1.26	184
concentration: 8.8 (µM), S9 metabolic activation: without S9, exposure time: 24 hours	0.76	1.6	115
concentration: 11 (µM), S9 metabolic activation: with S9, exposure time: 3-4 hours	0.24	1	196
concentration: 11 (µM), S9 metabolic activation: without S9, exposure time: 24 hours	0.62	1.76	123
concentration: 13.7 (µM), S9 metabolic activation: with S9, exposure time: 3-4 hours	0.18	1.36	187
concentration: 13.7 (µM), S9 metabolic activation: without S9, exposure time: 24 hours	0.74	1.34	122
concentration: 17.2 (µM), S9 metabolic activation: with S9, exposure time: 3-4 hours	0.32	1.24	183
concentration: 17.2 (µM), S9 metabolic activation: without S9, exposure time: 24 hours	0.68	1.64	108
concentration: 21.5 (µM), S9 metabolic activation: with S9, exposure time: 3-4 hours	0.2	1.36	149
concentration: 21.5 (µM), S9 metabolic activation: without S9, exposure time: 24 hours	0.6	1.3	98.6
concentration: 26.8 (µM), S9 metabolic activation: with S9, exposure time: 3-4 hours	0.24	1.36	184
concentration: 26.8 (µM), S9 metabolic activation: without S9, exposure time: 24 hours	1	1.8	99.8
concentration: 33.6 (µM), S9 metabolic activation: with S9, exposure time: 3-4 hours	0.4	2.12	166
concentration: 33.6 (µM), S9 metabolic activation: without S9, exposure time: 24 hours	0.74	1.94	110
concentration: 41.9 (µM), S9 metabolic activation: with S9, exposure time: 3-4 hours	0.28	1.88	197
concentration: 41.9 (µM), S9 metabolic activation: without S9, exposure time: 24 hours	1.06	1.18	86.9
concentration: 52.4 (µM), S9 metabolic activation: with S9, exposure time: 3-4 hours	0.3	1.68	158
concentration: 52.4 (µM), S9 metabolic activation: without S9, exposure time: 24 hours	0.54	1.7	85.7
concentration: 65.5 (µM), S9 metabolic activation: with S9, exposure time: 3-4 hours	0.34	1.94	189
concentration: 65.5 (µM), S9 metabolic activation: without S9, exposure time: 24 hours	1.06	1.4	91.9
concentration: 81.9 (µM), S9 metabolic activation: with S9, exposure time: 3-4 hours	0.32	1.9	183
concentration: 81.9 (µM), S9 metabolic activation: without S9, exposure time: 24 hours	0.9	1.44	82.9
concentration: 102 (µM), S9 metabolic activation: with S9, exposure time: 3-4 hours	0.26	1.46	209
concentration: 102 (µM), S9 metabolic activation: without S9, exposure time: 24 hours	0.8	1.4	76
concentration: 128 (µM), S9 metabolic activation: with S9, exposure time: 3-4 hours	0.18	1.36	179
concentration: 128 (µM), S9 metabolic activation: without S9, exposure time: 24 hours	1.08	1.66	80.6
concentration: 160 (µM), S9 metabolic activation: with S9, exposure time: 3-4 hours	0.28	1.32	160
concentration: 160 (µM), S9 metabolic activation: without S9, exposure time: 24 hours	1.28	2.24	57.5
concentration: 200 (µM), S9 metabolic activation: with S9, exposure time: 3-4 hours	0.3	1.88	172
concentration: 200 (µM), S9 metabolic activation: without S9, exposure time: 24 hours	0.82	2.06	57.1

Reference: the supplement of paper PMC9151546
